The supplement of paper PMC12217912
Some of the results follow. The full chains were built here from the parent and the listed change. Values near 0.05 are background.

B1: TEV protease; numbered along this chain (parent)
chain: MGESLFKGPRDYNPISSSICHLTNESDGHTTSLYGIGFGPFIITNKHLFRRNNGTLVVQSLHGVFKVKDTTTLQQHLVDGRDMIIIRMPKDFPPFPQKLKFREPQREERICLVTTNFQTKSMSSMVSDTSCTFPSGDGIFWKHWIQTKDGQCGSPLVSTRDGFIVGIHSASNFTNTNNYFTSVPKNFMELLTNQEAQQWVSGWRLNADSVLWGGHKVFMVKPEEPFQPVKEATQL

Variants of: B1
Experiment: raw area under fraction-flipped curve 0-4 h after induction (AUC4h, not background-subtracted), DNA-recorder readout of cleavage of the substrate (dimensionless); higher = more cleavage of the substrate by the protease variant
Conditions: temperature: 34 °C; time window: 0-4 h after rhamnose induction
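Further: Bxb1 expression induced with 0.2% (w/v) L-rhamnose at OD600 near 0.5, cultures sampled hourly, flipped fraction per protease–substrate barcode pair counted by paired-end Illumina sequencing.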

Variant	area with substrate ECLYFQS	area with substrate EDLYFQS	area with substrate EILYFQS	area with substrate EKLYFQS	area with substrate ELLYFQS	area with substrate EMLYFQS	area with substrate EQLYFQS	area with substrate ERLYFQS	area with substrate ESLYFQS	area with substrate EVLYFQS	area with substrate EWLYFQS	area with substrate EYLYFQS	area with substrate EELYFQS	area with substrate EFLYFQS	area with substrate EHLYFQS	area with substrate EPLYFQS	area with substrate ETLYFQS	area with substrate EGLYFQS
S123R	0.0551	0.143	0.0989	0.143	0.124	0.137	0.155	0.113	0.109	0.0919	0.0958	0.141						
S124L	0.0932		0.101		0.0707	0.105	0.0868	0.0835		0.0679	0.0839		0.0906	0.0877	0.112	0.109	0.0832	
S124N	0.0888	0.127		0.107	0.0998		0.0922	0.0937			0.092	0.0965	0.0964			0.12		0.102
M125A	0.107	0.142						0.0994	0.094	0.132	0.11	0.141	0.147			0.105		0.117
M125H	0.111	0.152	0.067				0.0782	0.12	0.121	0.0966			0.136		0.121	0.0508		0.132
M125I	0.127	0.113							0.134			0.106						
M125Q	0.0966	0.137	0.106	0.109	0.0535	0.105	0.111		0.123	0.104			0.0867	0.104		0.105	0.116	
S127C	0.098		0.098	0.0754	0.0943		0.102	0.0985	0.102	0.0901	0.0909	0.0866	0.156			0.119	0.0976	0.108
